Measured values published in the RNAGym collection of RNA variant scans (doi:10.7554/elife.90254).
Read counts are not given, so values of variants with three or more changes are uncertain.

B1: LINE1-mini (parent)
chain: GGCAGAGCUCAACACAGCGUGGCAAAGUGGCUGUGGCUAGACUGCC

Variants of: B1
Assay: self-cleavage, relative activity (ratio to wild type); higher = more cleavage; in vitro, sequencing; the parent is a self-cleaving ribozyme

Variant | self-cleavage
GGAAGAGCUCAACACAGCGUGGCAGAGAGGCUGUGGCUAGUCUGCC | 0.01
GGAAGAGUUCAACAAAGCGUGCCAGAGUGGCUGUGGCUUGACUGCC | 0.69
GGAAGAGCUCAACACAGCGUGGCAACGCGACUGUGGCUAGACUGCC | 0.23
GGAAGAGGUCAACACAGCGAGGUAAAGUGGCUGUGGCUAGACUGCC | 0.19
GGAAGAGCUUAACACAGCGUGGCAAAGUGGCGGUGGCUAGAGUGCC | 0.07
GGAAGAGCUCAAGACAGUGUGGUAAAGUGUCUGUGGCUCUAAUGCC | 0.02
GGAAGAGCUCAACACAGCGUGGCAAAGUGGCUGUGGCUGGACUGUU | 0.16
GGAAGAGCUCAACACAGCGUGGCAGAGUGUCUGUGGCUAGACUGCC | 0.19
GGAAGAGCUCAAAACAGCAUGGCAAAGUGGCUGUGGCUAGACUGCC | 0.73
GGAAGAGGUCAACACAGCGUGGCAAAGUGGCUGUGGCUAGGCUGCC | 0.14
GGAAGAGCUCAAAACAUCGUGGCAAAGUGGCUGUGGCUAGACUGCC | 0.26
GGAAGAGCUCAAGACAGAGUGCCAAAGUGGCUGUGGCUAGACUGCC | 0.06
GGAAGAGCUCAACACAGCGUGGCAAUGUGACUGUGUCUAAACUGCC | 0.06
GGAAGAGCUAAACACAGCGUGGCAAAGUGGCUGUGUCUAGACUGCC | 0.03
GGAAGAGCUCAACACAGCGUGGCAAAGUGGCUGUGGCUCGACUACC | 0.13
GGAAGAGCUCAACACAGCGUGGCAAAGUGGCUGUGGCUGGAGUGCC | 0.02
GGAAGAGCUCAAUACAGCGUGCCAAAGUGGCUGUGGAUAGACUGCC | 0.62
GGAAGAGAUCAACACAGCGUGACAAAAUGGCCGUGGUUAGACUGCC | 0.31
GGAAGAGCUAAACACAGCAUGGCAAAGUGGCUGUGGCUAGACUGCC | 0.07

Variant | self-cleavage
GGAAGAGAUCAACAUAGCGUGGCAAAGAUGCUGUGGCUACACUGCC | 0.43
GGAAGAGCUUAACACAUCGUGGCAAAGUGGCUGUGGCUAGACUGCC | 0.12
GGAAGAGCUGAUCACAGCGUGUCAACGUUGCUGUGGCUAGACUGCC | 0.01
GGAAGAGCUCAAACCAGCGUGACGAAGUGGCUUUGGCUAGACUGCC | 0.1
GGAAGAGAUCAACGCAGAGUGGCAAAGUGGCUGCGGCUAGACUGCC | 0.33
GGAAGAGCUGAACACAACGUGGCAAAGUGGCUGUGGCUAUACUGCA | 0.03
GGAAGAGCUCAAGACAGCGUGGCAAAGAGGCUGUGGCUAGACUGCA | 0.19
GGAAGAGCUCAAUACAGCGUGGCAAAGUGGCUGUGGUUAGACUGCA | 0.15
GGAAGAGCUCAAUAUAGCGUGGCAAAGCGGCUGUGGCUAGACUGCC | 0.61
GGAAGAGCUGAACACACAGUGGUAAAGUGGGUGUGGCUAGCCCGCC | 0
GGAAGAGCUUAACAUAGAGUGGCAAAGUGGAUGUGGCAAGACUGUA | 0.1
GGAAGAGUUCAACACUGCGUGGCAAAGUGGCUGUGGAUAGACUGCC | 0.35
GGAAGAGCUGAACACAGCGCGGCAAAGUGACUGUGGCUAGACUGCC | 0.06
GGAAGAGGUCAACACAGCGUGGCAAAGUUGCUGUGGCGAGACAGCC | 0.92
GGAAGAGUUCAACACAGCAUGGCAAAGUGGCUGUGGCUAGACUGCC | 0.12
GGAAGAGCUUAACACAGCGUGGCAAAGUGGGUUUGGGUAGACUGCC | 0.07
GGAAGAGCUCAAUAAAGCGUGGUAUAGUGGCUGUGGCUAGACUGCC | 0.45
GGAAGAGUUCAACGAAGAGUGGCAAAGUGGCUGUGGCUAGACUGCC | 0.37
GGAAGAGGUCAACACAGCGUGGCAAAGUGGCGGUGGCUAGACUGCC | 0.17

Variant | self-cleavage
GGAAGAGCUGAACACAGCGUGGCAAAGUGGCUGUGGCUGGACUGCC | 0.01
GGAAGAGCUCAACACAGCGUGGCAAAGUGGCUGUGGCUAGUCUGCU | 0.2
GGAAGAGCUCAAGACAGCGUGGCAACCUGGCUGGGGCUAGACUGCC | 0.05
GGAAGAGUUCAACAGAGCGUGGAAAGGUGGAUCUGGCUAGACUGCC | 0.51
GGAAGAGCUUAACACAGCGUUGCGAAGUGGCUGUGUCUAGACUGCC | 0.08
GGAAGAGCUCAAGACAGCGUUGCAAAGUGGCUGUGGCUAGACUGCC | 0.17
GGAAGAGCUCAACACAGCGUGGCAAGGAGGCUGUGGCCAGACUGCC | 0.01
GGAAGAGCUAAACACAGCGUGGCAAAGUGGCUGUGGUUAGCCUGCC | 0.01
GGAAGAGCUCAACACAGCGUGGCAAUGUGGCUGUGGGUGGACUGCC | 0.21
GGAAGAGCUGAACGCAGCGAGGCAAAGCUACUGUGGCGAGACCGCC | 0.01
GGAAGAGCUUAACACACCGUGGCAAAGUGGGUGUGGCUCGACUGCC | 0.02
GGAAGAGCUCAAAACAGCGUGGCAAAGUGGCUUUGGCUAGACUGCC | 0.07
GGAAGAGCUAAACACAGCGUGGCAAAGUGGCUGUGGCUAUACUGCC | 0.07
GGAAGAGCUCAAUACAGCGUGGCAAAGUGGCUGUGGCUAGUCUGCC | 0.71
GGAAGAGUUCAGCACAGCGUGGCAAAGUGGCUGUGGCUAGACUGCC | 0.92
GGAAGAGUUAAACACAGCGUGGCAAAGUGGCUGUGGCUAGACUGCC | 0.04
GGAAGAGCUCAAUACAGCGUGGCAAAGUGGCUGUAGCUAGACUGCC | 0.25
GGAAGAGGUCAACACAGCGUGGCAAAAUGGCUGUGGCUAGACUGCC | 0.26
